{"source": "paper PMC6919601", "about": "“Identification of Plasmodium dipeptidyl aminopeptidase allosteric inhibitors by high throughput screening” (PLoS ONE, 2019)", "note": "Hit rate of the full screen: of about 110,000 compounds, about 230 (0.21%) showed an effect of 50% or more. This is one part of the list.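 Note: 30 min substrate incubation versus DMSO and 10 µM JCP410 controls.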", "data": [{"target": "DPAP1 (Plasmodium falciparum, UniProt Q8IIJ9)", "sequence (Q8IIJ9 whole entry, looked up)": "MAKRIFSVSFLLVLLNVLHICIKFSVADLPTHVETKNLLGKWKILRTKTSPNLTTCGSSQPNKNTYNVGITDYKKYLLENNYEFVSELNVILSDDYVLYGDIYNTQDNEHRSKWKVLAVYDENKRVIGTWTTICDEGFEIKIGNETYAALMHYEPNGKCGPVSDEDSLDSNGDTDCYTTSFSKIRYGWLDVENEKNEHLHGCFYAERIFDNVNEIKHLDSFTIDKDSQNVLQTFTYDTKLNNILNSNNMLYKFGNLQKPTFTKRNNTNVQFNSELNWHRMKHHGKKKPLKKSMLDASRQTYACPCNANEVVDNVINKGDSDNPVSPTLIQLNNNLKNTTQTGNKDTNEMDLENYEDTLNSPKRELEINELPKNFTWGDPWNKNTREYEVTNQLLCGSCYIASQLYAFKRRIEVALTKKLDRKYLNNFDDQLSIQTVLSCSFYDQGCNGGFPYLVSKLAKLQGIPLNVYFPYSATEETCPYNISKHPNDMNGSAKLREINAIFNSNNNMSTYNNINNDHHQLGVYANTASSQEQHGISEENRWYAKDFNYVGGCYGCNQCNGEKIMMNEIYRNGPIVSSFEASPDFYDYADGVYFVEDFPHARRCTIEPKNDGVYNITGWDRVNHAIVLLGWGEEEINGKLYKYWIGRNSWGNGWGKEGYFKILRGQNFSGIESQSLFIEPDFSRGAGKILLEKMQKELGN", "test": "primary screen, percent inhibition; read by cleavage of a fluorogenic dipeptide substrate; higher = more effect of the substance", "parameters": "species or system P. falciparum D10 trophozoite lysates; single well", "units": {"% Inhibition @ 10 uM": "%"}, "values": [{"smiles": "COc1ccccc1/C=C1/OC(=O)c2c1cc(C)nc2O", "% Inhibition @ 10 uM": 2.18}, {"smiles": "COc1ccc(S(=O)(=O)N2CCN(c3ccc(F)cc3)CC2)cc1", "% Inhibition @ 10 uM": 2.26}, {"smiles": "COC(=O)c1ccc(C2Oc3ccc(OC)cc3C3CC(c4ccc(OC)cc4)=NN32)cc1", "note": "(stereo not drawn)", "% Inhibition @ 10 uM": 15.8}, {"smiles": "CC(=O)c1ccc(NC(=O)c2ccc(NC(=O)c3ccco3)cc2)cc1", "% Inhibition @ 10 uM": -6.44}, {"smiles": "Cc1ccc(S(=O)(=O)N(CC(=O)NC(C)(C)C)Cc2cccc(C)c2)cc1", "% Inhibition @ 10 uM": 2.76}, {"smiles": "O=S1(=O)C(/C=N/C2CC2)=C(O)c2sccc2N1Cc1ccc(F)cc1", "% Inhibition @ 10 uM": -1.43}, {"smiles": "Clc1cccc(N2CCN(C3CCC(c4ccccc4)CC3)CC2)c1", "note": "(stereo not drawn)", "% Inhibition @ 10 uM": -1.21}, {"smiles": "CCCN1CCC(NCc2ccccc2F)CC1", "% Inhibition @ 10 uM": -4.14}, {"smiles": "CNC(=O)/C(C#N)=C/c1c(Oc2ccc(Br)cc2)nc2ccccn2c1=O", "% Inhibition @ 10 uM": 1.19}, {"smiles": "O=C(Nc1ccc(O)cc1)c1ccco1", "% Inhibition @ 10 uM": -1.56}, {"smiles": "Cc1cccc(OCC(=O)N2CCC(C(N)=O)CC2)c1C", "% Inhibition @ 10 uM": -10.2}, {"smiles": "O=C(c1cccs1)n1nnc2ccccc21", "% Inhibition @ 10 uM": -0.178}, {"smiles": "COc1ccc(OC)c(C2C3=C(O)CCCC3=NC(C)=C2C(=O)Nc2c(F)cccc2F)c1", "note": "(stereo not drawn)", "% Inhibition @ 10 uM": -5.34}, {"smiles": "COc1ccc(OC)c([N+]2=C3CCCCCN3C(O)(c3ccc4c(c3)OCCO4)C2)c1", "note": "(stereo not drawn)", "% Inhibition @ 10 uM": 5.08}, {"smiles": "CC1=C(C(=O)OCc2ccccc2)C(c2ccccc2F)C(C#N)=C(N)O1", "note": "(stereo not drawn)", "% Inhibition @ 10 uM": 3.03}, {"smiles": "O=C(NCCc1ccccc1)C1CCC(CNS(=O)(=O)c2cccs2)CC1", "note": "(stereo not drawn)", "% Inhibition @ 10 uM": -2.56}, {"smiles": "COc1cc(S(=O)(=O)N2CCC(C)CC2)c(OC)cc1Cl", "% Inhibition @ 10 uM": -1.2}, {"smiles": "O=C(Nc1sc2c(c1C(=O)NC1CCS(=O)(=O)C1)CCCC2)c1ccccc1Br", "note": "(stereo not drawn)", "% Inhibition @ 10 uM": -0.132}, {"smiles": "COc1cc2c(cc1OC)CN(Cc1ccc(OC(F)(F)F)cc1)CC2", "% Inhibition @ 10 uM": 1.62}, {"smiles": "Oc1ccc(C(=S)N2CCCCC2)cc1", "% Inhibition @ 10 uM": -3.27}, {"smiles": "C=C(N[C@@H](CCc1ccccc1)C(=O)CCS(=O)(=O)c1ccc2ccccc2c1)[C@H](CC(C)C)NC(=O)C1CCNCC1", "% Inhibition @ 10 uM": 0.744}, {"smiles": "CN(Cc1ccccc1)C(=O)CNC(=O)Cn1cnc2sc3c(c2c1=O)CCCC3", "% Inhibition @ 10 uM": 10.1}, {"smiles": "COc1ccc(CN(C(=O)c2cc(=O)c3ccccc3o2)C2CCS(=O)(=O)C2)cc1", "note": "(stereo not drawn)", "% Inhibition @ 10 uM": 0.248}, {"smiles": "O=C(CCCn1sc2ccccc2c1=O)n1ccnc1", "% Inhibition @ 10 uM": 4.79}, {"smiles": "COc1cc(C2CC(=O)Nc3c2c(=O)n(C)c(=O)n3C)ccc1O", "note": "(stereo not drawn)", "% Inhibition @ 10 uM": 0.231}, {"smiles": "OC1CCCN(Cc2ccc(OC(F)(F)F)cc2)C1", "note": "(stereo not drawn)", "% Inhibition @ 10 uM": 1.62}, {"smiles": "N#Cc1c(-c2ccccc2)ncnc1N1CCCCC1", "% Inhibition @ 10 uM": -5.23}, {"smiles": "O=C(NC1CCCC1)c1ccccc1", "% Inhibition @ 10 uM": -4.13}, {"smiles": "O=C1c2[nH]nc(-c3ccccc3O)c2C(c2ccc(Cl)cc2)N1CCO", "note": "(stereo not drawn)", "% Inhibition @ 10 uM": -4.95}, {"smiles": "Oc1ccc(Nc2nc3nonc3nc2Nc2ccc(O)cc2)cc1", "% Inhibition @ 10 uM": -4.26}, {"smiles": "c1ccc2[nH]c(CCn3c4c(c5ccccc53)CCCC4)nc2c1", "% Inhibition @ 10 uM": 6.66}, {"smiles": "Cc1ccc(CCNS(=O)(=O)c2c(C)nc3sccn3c2=O)cc1", "% Inhibition @ 10 uM": 4.95}, {"smiles": "CCCCC12CN3CC(C)(CN(C1)C3c1ccc(C(C)C)cc1)C2=O", "note": "(stereo not drawn)", "% Inhibition @ 10 uM": -3.49}, {"smiles": "O=C(NCCN1CCc2ccccc2C1)c1cc2ccc3cccnc3c2[nH]1", "% Inhibition @ 10 uM": 4.44}, {"smiles": "O=C(NCCCn1ccnc1)c1cnn2c(C(F)(F)F)cc(-c3ccc(Br)cc3)nc12", "% Inhibition @ 10 uM": 1.4}, {"smiles": "CCOc1cccc(NC(=O)C2CC(=O)N(C)/C(=N/c3ccccc3OC)S2)c1", "note": "(stereo not drawn)", "% Inhibition @ 10 uM": -1.43}, {"smiles": "Cc1c(C2(c3c(C)n(C)n(-c4ccccc4)c3=O)C(=O)N(C)c3ccc([N+](=O)[O-])cc32)c(=O)n(-c2ccccc2)n1C", "% Inhibition @ 10 uM": 6.8}, {"smiles": "Cc1nn(CC(=O)NCCN2CCCC2)c(=O)c2cc3cc(F)ccc3n12", "% Inhibition @ 10 uM": 1.68}, {"smiles": "CC(C)C[C@H](NC(=O)OCc1ccccc1)C(=O)NC(C#N)CC(C)S(C)(=O)=O", "note": "(stereo partly drawn)", "% Inhibition @ 10 uM": -1.41}, {"smiles": "Fc1ccc(CN2CCN(c3ccccc3)CC2)c(F)c1", "% Inhibition @ 10 uM": -5.5}, {"smiles": "Cc1ccc(-c2cc(C(=O)O)c3cc4c(C(=O)O)cc(-c5ccc(C)o5)nc4cc3n2)o1", "% Inhibition @ 10 uM": 6.79}, {"smiles": "CCc1cccc(CC)c1NC(=O)CCCC(=O)O", "% Inhibition @ 10 uM": 0.658}, {"smiles": "Cc1n[nH]c(C)c1CCc1nc2c3ccccc3nc(SCc3ccc(C#N)cc3)n2n1", "% Inhibition @ 10 uM": 6.18}, {"smiles": "Cc1cccc(-c2nc(N3CCCCCC3)c3ccccc3n2)c1", "% Inhibition @ 10 uM": 2.38}, {"smiles": "CCn1c(SCc2ccccc2Cl)nc2c1c(=O)[nH]c(=O)n2C", "% Inhibition @ 10 uM": -2.89}, {"smiles": "Cc1c(CN2CCC(C)CC2)c(=O)n(-c2ccccc2)n1C", "% Inhibition @ 10 uM": -5.94}, {"smiles": "Cc1cccc(CS(=O)(=O)Cc2ccc(C(=O)NCc3ccccc3Cl)o2)c1", "% Inhibition @ 10 uM": 2.35}, {"smiles": "COc1cc(Br)cc2c1Oc1nc(-c3cc(OC)c(OC)c(OC)c3)nc(O)c1C2", "% Inhibition @ 10 uM": 0.655}]}]}
